Experimental data reported in the supplement of paper PMC10724272.
MIC of invasive clinical C. tropicalis isolates, CLSI broth microdilution (fluconazole 0.12-256 mg/L, up to 1,024 for the azole-resistant cluster and its neighbour group; other ranges not stated); higher = less susceptible. Call: susceptible or wild type [S] / resistant or non-wild type [R] by CLSI breakpoints or cut-offs; intermediate and dose-dependent carry no call. '<=' and '>=' at the end values are inferred; the source marks only some of them. Isolates are numbered anew.

Compound: Nc1[nH]c(=O)ncc1F [flucytosine]
Assay: CLSI broth microdilution.

| Test System | MIC |
| --- | --- |
| Candida tropicalis isolate 262 (ERG11 copies: 2, Erg11p: no key change) | ≤ 0.06 mg/L [S] |
| Candida tropicalis isolate 31 (ERG11 copies: 2, Erg11p: no key change) | 0.12 mg/L [S] |
| Candida tropicalis isolate 397 (ERG11 copies: 7, Erg11p: Y132F, S154F (heterozygous)) | ≤ 0.06 mg/L [S] |
| Candida tropicalis isolate 419 (ERG11 copies: 2, Erg11p: no key change) | ≤ 0.06 mg/L [S] |
| Candida tropicalis isolate 314 (ERG11 copies: 2, Erg11p: no key change) | ≤ 0.06 mg/L [S] |
| Candida tropicalis isolate 361 (ERG11 copies: 2, Erg11p: no key change) | ≤ 0.06 mg/L [S] |
| Candida tropicalis isolate 26 (ERG11 copies: 2, Erg11p: no key change) | ≤ 0.06 mg/L [S] |
| Candida tropicalis isolate 441 (ERG11 copies: 2, Erg11p: no key change) | ≤ 0.06 mg/L [S] |
| Candida tropicalis isolate 8 (ERG11 copies: 2, Erg11p: no key change) | ≤ 0.06 mg/L [S] |
| Candida tropicalis isolate 237 (ERG11 copies: 7, Erg11p: Y132F, S154F (heterozygous)) | ≤ 0.06 mg/L [S] |
| Candida tropicalis isolate 413 (ERG11 copies: 8, Erg11p: Y132F, S154F (heterozygous)) | ≤ 0.06 mg/L [S] |
| Candida tropicalis isolate 387 (ERG11 copies: 2, Erg11p: no key change) | ≤ 0.06 mg/L [S] |
| Candida tropicalis isolate 215 (ERG11 copies: 2, Erg11p: Y257H (homozygous)) | ≤ 0.06 mg/L [S] |
| Candida tropicalis isolate 345 (ERG11 copies: 2, Erg11p: no key change) | ≤ 0.06 mg/L [S] |
| Candida tropicalis isolate 122 (ERG11 copies: 2, Erg11p: no key change) | 0.12 mg/L [S] |
| Candida tropicalis isolate 112 (ERG11 copies: 5, Erg11p: Y132F, S154F (heterozygous)) | ≤ 0.06 mg/L [S] |
| Candida tropicalis isolate 367 (ERG11 copies: 2, Erg11p: no key change) | 0.12 mg/L [S] |
| Candida tropicalis isolate 235 (ERG11 copies: 2, Erg11p: no key change) | ≤ 0.06 mg/L [S] |

Compound: CC[C@H](C)C[C@H](C)CCCCCCCCC(=O)N[C@H]1C[C@@H](O)[C@@H](NCCN)NC(=O)[C@@H]2[C@@H](O)CCN2C(=O)[C@H]([C@H](O)CCN)NC(=O)[C@H]([C@H](O)[C@@H](O)c2ccc(O)cc2)NC(=O)[C@@H]2C[C@@H](O)CN2C(=O)[C@H]([C@@H](C)O)NC1=O [caspofungin]
Assay: CLSI broth microdilution.

| Test System | MIC |
| --- | --- |
| Candida tropicalis isolate 402 (ERG11 copies: 2, Erg11p: no key change) | 0.06 mg/L [S] |
| Candida tropicalis isolate 27 (ERG11 copies: 2, Erg11p: no key change) | 0.03 mg/L [S] |
| Candida tropicalis isolate 99 (ERG11 copies: 2, Erg11p: no key change) | 0.5 µg/mL |
| Candida tropicalis isolate 340 (ERG11 copies: 2, Erg11p: no key change) | 0.03 mg/L [S] |
| Candida tropicalis isolate 410 (ERG11 copies: 8, Erg11p: Y132F, S154F (heterozygous)) | 0.12 mg/L [S] |
| Candida tropicalis isolate 416 (ERG11 copies: 2, Erg11p: no key change) | 0.06 mg/L [S] |
| Candida tropicalis isolate 318 (ERG11 copies: 2, Erg11p: no key change) | 0.03 mg/L [S] |
| Candida tropicalis isolate 320 (ERG11 copies: 2, Erg11p: no key change) | 0.06 mg/L [S] |
| Candida tropicalis isolate 226 (ERG11 copies: 2, Erg11p: no key change) | 0.06 mg/L [S] |
| Candida tropicalis isolate 266 (ERG11 copies: 2, Erg11p: no key change) | 0.03 mg/L [S] |
| Candida tropicalis isolate 271 (ERG11 copies: 2, Erg11p: no key change) | 0.03 mg/L [S] |
| Candida tropicalis isolate 63 (ERG11 copies: 2, Erg11p: no key change) | 0.25 mg/L [S] |
| Candida tropicalis isolate 386 (ERG11 copies: 2, Erg11p: no key change) | 0.03 mg/L [S] |
| Candida tropicalis isolate 23 (ERG11 copies: 2, Erg11p: no key change) | 0.06 mg/L [S] |
| Candida tropicalis isolate 72 (ERG11 copies: 2, Erg11p: no key change) | 0.03 mg/L [S] |
| Candida tropicalis isolate 430 (ERG11 copies: 2, Erg11p: no key change) | 0.03 mg/L [S] |
| Candida tropicalis isolate 147 (ERG11 copies: 2, Erg11p: no key change) | 0.03 mg/L [S] |
| Candida tropicalis isolate 309 (ERG11 copies: 2, Erg11p: no key change) | 0.06 mg/L [S] |

| Test System | MIC |
| --- | --- |
| Candida tropicalis isolate 262 (ERG11 copies: 2, Erg11p: no key change) | 0.03 mg/L [S] |
| Candida tropicalis isolate 31 (ERG11 copies: 2, Erg11p: no key change) | 0.06 mg/L [S] |
| Candida tropicalis isolate 397 (ERG11 copies: 7, Erg11p: Y132F, S154F (heterozygous)) | 0.06 mg/L [S] |
| Candida tropicalis isolate 419 (ERG11 copies: 2, Erg11p: no key change) | 0.03 mg/L [S] |
| Candida tropicalis isolate 314 (ERG11 copies: 2, Erg11p: no key change) | 0.015 mg/L [S] |
| Candida tropicalis isolate 361 (ERG11 copies: 2, Erg11p: no key change) | 0.03 mg/L [S] |
| Candida tropicalis isolate 26 (ERG11 copies: 2, Erg11p: no key change) | 0.06 mg/L [S] |
| Candida tropicalis isolate 441 (ERG11 copies: 2, Erg11p: no key change) | 0.25 mg/L [S] |
| Candida tropicalis isolate 8 (ERG11 copies: 2, Erg11p: no key change) | 0.06 mg/L [S] |
| Candida tropicalis isolate 237 (ERG11 copies: 7, Erg11p: Y132F, S154F (heterozygous)) | 0.03 mg/L [S] |
| Candida tropicalis isolate 413 (ERG11 copies: 8, Erg11p: Y132F, S154F (heterozygous)) | 0.03 mg/L [S] |
| Candida tropicalis isolate 387 (ERG11 copies: 2, Erg11p: no key change) | 0.03 mg/L [S] |
| Candida tropicalis isolate 215 (ERG11 copies: 2, Erg11p: Y257H (homozygous)) | 0.03 mg/L [S] |
| Candida tropicalis isolate 345 (ERG11 copies: 2, Erg11p: no key change) | 0.03 mg/L [S] |
| Candida tropicalis isolate 122 (ERG11 copies: 2, Erg11p: no key change) | 0.015 mg/L [S] |
| Candida tropicalis isolate 112 (ERG11 copies: 5, Erg11p: Y132F, S154F (heterozygous)) | 0.12 mg/L [S] |
| Candida tropicalis isolate 367 (ERG11 copies: 2, Erg11p: no key change) | 0.06 mg/L [S] |
| Candida tropicalis isolate 235 (ERG11 copies: 2, Erg11p: no key change) | 0.03 mg/L [S] |

Compound: CCCCCOc1ccc(-c2ccc(-c3ccc(C(=O)N[C@H]4C[C@@H](O)[C@@H](O)NC(=O)[C@@H]5[C@@H](O)[C@@H](C)CN5C(=O)[C@H]([C@@H](C)O)NC(=O)[C@H]([C@H](O)[C@@H](O)c5ccc(O)cc5)NC(=O)[C@@H]5C[C@@H](O)CN5C(=O)[C@H]([C@@H](C)O)NC4=O)cc3)cc2)cc1 [anidulafungin]
Assay: CLSI broth microdilution.

| Test System | MIC |
| --- | --- |
| Candida tropicalis isolate 402 (ERG11 copies: 2, Erg11p: no key change) | 0.12 mg/L [S] |
| Candida tropicalis isolate 27 (ERG11 copies: 2, Erg11p: no key change) | 0.12 mg/L [S] |
| Candida tropicalis isolate 99 (ERG11 copies: 2, Erg11p: no key change) | 0.06 mg/L [S] |
| Candida tropicalis isolate 340 (ERG11 copies: 2, Erg11p: no key change) | 0.12 mg/L [S] |
| Candida tropicalis isolate 410 (ERG11 copies: 8, Erg11p: Y132F, S154F (heterozygous)) | 0.25 mg/L [S] |
| Candida tropicalis isolate 416 (ERG11 copies: 2, Erg11p: no key change) | 0.12 mg/L [S] |
| Candida tropicalis isolate 318 (ERG11 copies: 2, Erg11p: no key change) | 0.03 mg/L [S] |
| Candida tropicalis isolate 320 (ERG11 copies: 2, Erg11p: no key change) | 0.12 mg/L [S] |
| Candida tropicalis isolate 226 (ERG11 copies: 2, Erg11p: no key change) | ≤ 0.015 mg/L [S] |
| Candida tropicalis isolate 266 (ERG11 copies: 2, Erg11p: no key change) | ≤ 0.015 mg/L [S] |
| Candida tropicalis isolate 271 (ERG11 copies: 2, Erg11p: no key change) | ≤ 0.015 mg/L [S] |
| Candida tropicalis isolate 63 (ERG11 copies: 2, Erg11p: no key change) | 0.25 mg/L [S] |
| Candida tropicalis isolate 386 (ERG11 copies: 2, Erg11p: no key change) | 0.12 mg/L [S] |
| Candida tropicalis isolate 23 (ERG11 copies: 2, Erg11p: no key change) | 0.25 mg/L [S] |
| Candida tropicalis isolate 72 (ERG11 copies: 2, Erg11p: no key change) | ≤ 0.015 mg/L [S] |
| Candida tropicalis isolate 430 (ERG11 copies: 2, Erg11p: no key change) | 0.03 mg/L [S] |
| Candida tropicalis isolate 147 (ERG11 copies: 2, Erg11p: no key change) | 0.06 mg/L [S] |
| Candida tropicalis isolate 309 (ERG11 copies: 2, Erg11p: no key change) | 0.06 mg/L [S] |
| Candida tropicalis isolate 262 (ERG11 copies: 2, Erg11p: no key change) | 0.03 mg/L [S] |
| Candida tropicalis isolate 31 (ERG11 copies: 2, Erg11p: no key change) | 0.12 mg/L [S] |
| Candida tropicalis isolate 397 (ERG11 copies: 7, Erg11p: Y132F, S154F (heterozygous)) | 0.12 mg/L [S] |
| Candida tropicalis isolate 419 (ERG11 copies: 2, Erg11p: no key change) | 0.06 mg/L [S] |
| Candida tropicalis isolate 314 (ERG11 copies: 2, Erg11p: no key change) | ≤ 0.015 mg/L [S] |
| Candida tropicalis isolate 361 (ERG11 copies: 2, Erg11p: no key change) | 0.03 mg/L [S] |
| Candida tropicalis isolate 26 (ERG11 copies: 2, Erg11p: no key change) | 0.03 mg/L [S] |
| Candida tropicalis isolate 441 (ERG11 copies: 2, Erg11p: no key change) | 0.12 mg/L [S] |
| Candida tropicalis isolate 8 (ERG11 copies: 2, Erg11p: no key change) | 0.06 mg/L [S] |
